The supplement of paper PMC3334620
Over roughly 33,000 sequences, “E-score (-0.5 to 0.5)” has its median near -0.013; the highest 2% begin near 0.3. Some of the results follow.

Target: T1, Msn1 (UniProt P22148)
T1 sequence: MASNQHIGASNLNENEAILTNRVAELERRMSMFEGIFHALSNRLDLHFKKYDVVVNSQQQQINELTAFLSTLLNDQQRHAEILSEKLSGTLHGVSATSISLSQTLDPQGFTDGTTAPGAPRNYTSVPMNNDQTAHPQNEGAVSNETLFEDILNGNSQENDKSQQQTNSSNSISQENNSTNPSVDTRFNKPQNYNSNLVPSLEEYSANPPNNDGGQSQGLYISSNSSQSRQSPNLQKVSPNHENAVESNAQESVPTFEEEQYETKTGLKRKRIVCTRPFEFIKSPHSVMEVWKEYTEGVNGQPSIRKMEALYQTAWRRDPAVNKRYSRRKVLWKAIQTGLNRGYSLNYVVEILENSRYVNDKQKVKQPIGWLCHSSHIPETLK
Assay: PBM E-score (8-mer binding enrichment) (E-score (-0.5 to 0.5)); higher = stronger / more preferred TF binding; most listed sequences are background and not binding sites
Conditions: protein concentration: 200 nM; construct: GST-full length
Summary of the method: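 PURExpress in vitro transcription/translation supplied GST-tagged yeast transcription factors, either full-length or DNA-binding domain. Applied at about 100-200 nM to universal all-10-mer Agilent arrays double-stranded by primer extension, the bound protein was detected with fluorescent anti-GST. E-scores, modified Wilcoxon-Mann-Whitney statistics, were given by the Universal PBM Analysis Suite to ungapped eight-base words pooled with their reverse complements after masliner normalisation.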

Sequence | PBM E-score
TGACCGAA | -0.0832
AGGCTAAT | -0.0128
CACGCTTA | 0.0573
AATGCTGT | 0.102
GCCTGCCA | -0.106
CATGTACC | 0.186
AGTGTGCC | -0.0965
CGGGGGTA | -0.132
CCCGAAAA | 0.0898
GTCAACAA | 0.0142
AGCCAGCC | -0.24
AAATAGTA | 0.172
ACTGTCTG | 0.079
CCAAAACC | -0.0194
CCAGCGAA | -0.131
CAGGTGAA | 0.0265
CAGATCCA | -0.00698
CTATCGAG | -0.0768
CCGTACTC | -0.0838
GGTCACCA | -0.141
GCCGCCTA | -0.173
AGTTATCG | 0.0754
AAGCTAAT | 0.219
CGTGGGGC | -0.306
ACCAACAT | 0.176

Sequence | PBM E-score
CTGTGTAC | 0.197
CTGAGAAC | -0.0397
CAAATGTC | 0.471
TCATTTCA | 0.0279
ATTGGCGC | -0.0295
CTGGGAAG | -0.178
AAAGGGCC | -0.377
CACTCGAC | 0.0548
CGGCATTC | -0.0374
GGGGTATA | -0.0556
AGCCCACA | -0.248
ACATGGAC | 0.326
ATGCACCC | -0.084
CTTCTGAA | 0.0733
CCGCGACG | 0.114
ACATGGCG | -0.0945
AAGTTAAA | 0.108
ATAGGTAG | -0.0873
GCTTGCAA | -0.0398
TAATCTCA | -0.133
ACGGGCTA | -0.135
ACGATAAG | 0.0245
AATTCTAC | 0.114
CGGGACGA | 0.115
ACTTAAGC | -0.0761

Sequence | PBM E-score
AAAAAGAG | -0.0517
GCGAATAA | 0.152
AGACCGAG | 0.0557
AAGTCCAG | 0.244
CCAGGGCC | -0.337
GGAATGGA | 0.0954
TAGAGCGA | -0.0106
GGGTGTCA | -0.0869
AGAGTTTG | 0.0601
TACGCCTA | -0.077
CGTCACCA | -0.00976
AAACCTGC | -0.0481
CCCCGACC | -0.275
AATAATGC | 0.0867
CGGCAACA | 0.153
ACTAAAAC | 0.14
TACGAAAA | 0.165
AGCTGTCC | 0.0154
CATCAAAA | 0.19
ACAGATAT | 0.179
AAACTAAG | 0.179
ACGTTTCG | -0.0593
ATCATCAT | 0.0315
GAATAGGA | 0.0921
GTTCGCCA | -0.0522

Sequence | PBM E-score
AAAGGACT | 0.0135
GCCCGCAA | -0.0655
ATGTAAAC | 0.159
ACTCCCGC | -0.119
ACACGCCA | 0.0178
CGGAGCAA | 0.178
CTCTTACA | 0.0199
CGGATCTA | -0.0937
CGGCCACA | -0.0351
ACGACCCA | -0.15
GCATGCTA | -0.159
CATTGATC | 0.0339
ATGTATAC | 0.133
CGGGCCTA | -0.124
GACGAGCC | -0.0533
GAACTTTA | 0.0977
CATCCGGG | -0.176
TTAAACAA | -0.00485
CAAAAGGC | 0.137
GGCACGCC | -0.331
CATTTTCC | 0.131
GTATACGA | -0.112
AATGAACA | 0.0706
GCAACAGA | 0.00873
AACCTCAT | 0.0119

Sequence | PBM E-score
ACCACAGG | -0.142
ATCCCGCC | -0.111
ATCTCACG | -0.0816
ATCCTTAG | -0.2
AGATAGAT | -0.0207
GGCTATAA | -0.0391
CAAAGCGC | -0.0695
CGGACCAG | -0.125
ACACGGCG | 0.0249
ACCCGGAT | -0.0832
ATGAATGG | 0.15
AGGCTCAA | -0.133
ACGCGTAA | 0.0124
CGCAATTC | 0.038
ATTGGACC | -0.101
GCTGGCAC | -0.222
CAGCACCC | -0.154
ATCAAGAG | 0.0633
ACGTGCGA | -0.12
CTCACCAA | 0.0761
ATGGAATC | 0.0966
CTCATGGC | -0.127
TAGCTATA | -0.174
AAGGACTG | -0.0408
GCCCTAAC | -0.0728

Sequence | PBM E-score
GTTCCCGA | 5e-05
ACTACATA | 0.0708
CTGATGCC | 0.0666
CTAATCAC | 0.0956
CTTTCTCC | -0.291
AACCGCAA | 0.149
CCAAAGCC | -0.00175
ACACAGTC | 0.148
CCGTCTAG | 0.0817
GTCTCTAA | 0.133
CCCACATC | -0.199
CAACCGTG | -0.136
ACGAGTAC | 0.146
ATACGCCA | 0.0688
AAGGAATA | 0.144
CGGCGGGA | -0.181
CACGCCCA | -0.0451
AGAGGAGG | -0.382
TCGTATAA | 0.172
CCAAAGAG | -0.0341
AATTTTGG | 0.127
AAATAACC | 0.0634
GAGGTGAA | -0.012
GCTTCAAC | -0.014
CGTCGAAA | 0.114

Sequence | PBM E-score
GGCCGAAC | -0.239
CCCTCCGG | -0.294
GCATGTCA | 0.261
CTCGTCAA | -0.113
CTGTCCCA | 0.281
GAGCCGCC | -0.217
AGTTATAC | 0.128
ACCGAGAC | 0.153
ACTAAGAC | 0.19
GTTCGCGA | 0.199
GAATCGTA | 0.0128
AGCTTTAA | 0.09
GAGAGCAA | -0.252
AGATTACA | 0.0428
GCTAAACC | -0.0855
GGTCAACC | -0.243
CCTCAGCC | -0.225
GCCTGACA | -0.0691
CTATCTAC | 0.1
TCTGTGCA | 0.0332
TACCAACA | 0.175
TGGAGAAA | -0.147
